# Measurements from paper PMC12136788.
# The other results are listed elsewhere or left out.
# B1: ENSG00000168795:stop:overlap|stop_codon|ENSG00000168795|stop_codon|NA|stop_codon (ssRNA)
# RNA: GGGAGUUCUACAGUCCGACGAUCAGCACUCAAAGACUACCUGCCUGCGCUGGCAGAGCAGCAAUCUUCCCAGCACUUUGCUCUAGCUGUUUGUCCUUACAAGACAACGCUGAGGCCAGUUGUCAGACUGAAUUUCUUUUGGUACAACAGAGGAUUGAGCAUCA
# B2: chr1:229660051:229660152:+|3pUTR|ENSG00000135763|msi1|total|mutant (ssRNA)
# RNA: GGGAGUUCUACAGUCCGACGAUCCUCAUUCACCGUCUCAGUUACCCAGAUAACCUCGGUUGUCACCUUGGAGUAUCUUGUUGCCGUCCCUUUACUAUGUGUAUGUAUACCGAUGUGCAUAUAAAUAUAUACCGCCGCUAAAUUCAACAGAGGAUUGAGCAUCA
# B3: chr19:4409044:4409156:+|CDS|ENSG00000167670|unk|FALSE|unique (ssRNA)
# RNA: GGGAGUUCUACAGUCCGACGAUCCUGUCAUGUGGGUUCUGACAUAGACUUUAGACCGAAACUUGUCAACGGGAAGGGUCCCUUAGAUAACUUUUUAAGAAAUAGAAUCGAAACCAGUAUUGGCCAGAGCACAGUCAUCAUUGACAACAGAGGAUUGAGCAUCA
# B4: ENSG00000006432:stop:overlap|stop_codon|ENSG00000006432|stop_codon|NA|stop_codon (ssRNA)
# RNA: GGGAGUUCUACAGUCCGACGAUCGAGCGGAACUGAACACACACAGGCCUGCCCCUUAUGAGAUCCAGCAGGAGUUCUGGUCUUAGCACGAAAAGGAUUGGGGCGGGCAAGGGGGACAGCCAGCGGAGAUGAGGGGAGCUGGCGCAACAGAGGAUUGAGCAUCA
# B5: chr17:75827259:75827360:-|3pUTR|ENSG00000092929|unk|FALSE|unique (ssRNA)
# RNA: GGGAGUUCUACAGUCCGACGAUCGGACAGUUUGGCUGCUGUGUCUGCUGCGCACGCCCCCUCCCCGGACAGCACCUGCCACCUAGAAACUUUCUUAGCAAAAAAAUUAAUAAAAACAAAUCCAUUGUCCUCUUAAAAUAUGCCCAACAGAGGAUUGAGCAUCA
# B6: chr3:167305642:167305950:-|CDS|ENSG00000169064|control|control|control (ssRNA)
# RNA: GGGAGUUCUACAGUCCGACGAUCAAAGUCUGAUGAUUCCUGUGUAUCACUUGAAAGCAAGGACACUUUGCUAGGUAGAGAUUUAGAAAAAGCUCCCAUUGAGGAGAAAUUAUCUCAAGACAUCAAAGAAUCCUUGGAAUUGAGCAACAGAGGAUUGAGCAUCA
# B7: chr4:75800632:75800752:+|CDS|ENSG00000138768|unk|total|mutant (ssRNA)
# RNA: GGGAGUUCUACAGUCCGACGAUCAAACAACUGAUUGAGAAGAGGAUUGGCAAAGAGAAUUUCACCGAGAAACCCGGAUUUAUCCGCAAACAUGAGUUGUAUUCCAGAGCAUCUCAGAAACCCCAGCCAAACUUUCCCAGUCCACAACAGAGGAUUGAGCAUCA
# B8: chr10:89738052:89738153:+|CDS|ENSG00000138182|unk|FALSE|bound_elsewhere (ssRNA)
# RNA: GGGAGUUCUACAGUCCGACGAUCCUGGAACAACAAAUUGAAAAAUUGCAGGCAGAAGUAAAAGGCUAUAAGGAUGAAAACAAUAGACUAAAGGAGAAGGAGCAUAAAAACCAAGAUGACCUACUAAAAGAAAAAGAAACUCUUCAACAGAGGAUUGAGCAUCA
# B9: chr10:74120044:74120145:+|3pUTR|ENSG00000035403|msi1|total|mutant (ssRNA)
# RNA: GGGAGUUCUACAGUCCGACGAUCAAAAAAAAUCCCUGAAUGAUGAUCCGAGACAUCACCGCUAAAAAACUACAUUUAUAAGCCCGGAUUUGUUAUAUGCAAAUAUUUUCUGCCUCUUCUUUUGUUCUGUUUAAAACAAUAAAACAACAGAGGAUUGAGCAUCA
# B10: chr4:75577918:75578020:-|3pUTR|ENSG00000138769|unk|FALSE|unique (ssRNA)
# RNA: GGGAGUUCUACAGUCCGACGAUCGGUUGUUUAGGGAACCAGAAUUUGUGAGUUUUUUUUUUUUUUUUGCCUUAACUAAUUAAUAGUGUGUUGCUUUUUUUCCAAAGCCAUUGACUAGAACUUAGCUGAAGAAUUUAACUAGAACAACAGAGGAUUGAGCAUCA
# B11: chr6:13358100:13358202:-|3pUTR|ENSG00000145990|unk|total|mutant (ssRNA)
# RNA: GGGAGUUCUACAGUCCGACGAUCAGUAAACAGAGUCUAUAUUUUCUAUAUAAUGCCGACCGUCAAACACCGCUUAUAAAUUACCGGAGGUUUUGGUUUUCUUUUUUAUUAUUAAAGGAAAAAAAGAAGAAAAAAAAAGACAAUCAACAGAGGAUUGAGCAUCA
# B12: chr3:27418507:27418620:-|CDS|ENSG00000033867|unk|total|mutant (ssRNA)
# RNA: GGGAGUUCUACAGUCCGACGAUCUGAUGCCGCUUAUAAAGCAAAAGACAGAAAUGACCUCUUAUCUGGAAUUGAUGAAUUUUCCGAUCAAGUAACUGUCCUACCUCCAGGAGAGUGGGAUCCUUCUAUACGCACCGAACCACCCAACAGAGGAUUGAGCAUCA
# B13: ENSG00000198856:stop:overlap|stop_codon|ENSG00000198856|stop_codon|NA|stop_codon (ssRNA)
# RNA: GGGAGUUCUACAGUCCGACGAUCUGAGUUUUUUCAUGGCUAGAGUAUUCAUGAGAAUGAAACUGCCGGGCUAUCUGAUGGGUUAGAGUGCCUUUGAGAAGAAAUCAGUGGAUACUGGAUUUGCUCCUGUCAAUGAAGUUUUAACAACAGAGGAUUGAGCAUCA
# B14: chr1:67413009:67413110:-|3pUTR|ENSG00000142864|unk|FALSE|unique (ssRNA)
# RNA: GGGAGUUCUACAGUCCGACGAUCCUGAAUUUUAUCUGUUUUAAAAAUGAACUUCUCCCGCUACACAGAAGUAACAAAUAUGGUAGUCAGUUUUGUAUUUAGAAAUGUAUUGGUAGCAGGGAUGUUUUCAUAAUUUUCAGAGAUCAACAGAGGAUUGAGCAUCA
# B15: chr10:71816642:71816777:-|3pUTR|ENSG00000197746|msi1_unk|FALSE|overlapping (ssRNA)
# RNA: GGGAGUUCUACAGUCCGACGAUCUUGUUUGGGGUUCUGUGGGUUUGGGUGGGAAGAGGGCCAUCUGCCUGAAUGUAACCUGCUAGCUCUCCGAAGGCCCUGCGGGCCUGGCUUGUGUGAGCGUGUGGACAGUGGUGGCCGCGCCAACAGAGGAUUGAGCAUCA
# B16: chr3:138622260:138622368:+|CDS|ENSG00000158234|unk|total|mutant (ssRNA)
# RNA: GGGAGUUCUACAGUCCGACGAUCAUCCGUGGGCAAAGAAACAUUCUAUGUUGGAGCUGCAAAGACAAAAGCGACCAUAAAUACCGACGCUAUCAGUGGUUUUGCUUAUGAAUAUACUCUGGAAAUUAAUGGGAAAAGUCUCAACAACAGAGGAUUGAGCAUCA
# B17: chrY:12776687:12776788:+|CDS|ENSG00000114374|msi1|FALSE|unique (ssRNA)
# RNA: GGGAGUUCUACAGUCCGACGAUCGUUUUUGAUGGUGACAAAAACAGCAUUAAUUGUGCAAGACAAGAAGCCAUUCGAAUGGUUAGAGUAUUAACUGUUAUAAAAGAGUACAUUAAUGAAUGUGACAGUGAUUAUCACAAGGAACAACAGAGGAUUGAGCAUCA
# B18: chr18:2804133:2804242:+|3pUTR|ENSG00000101596|unk|FALSE|unique (ssRNA)
# RNA: GGGAGUUCUACAGUCCGACGAUCGGUUAAAGAGAAAUGACUUUUUAGGAACUAGACUUGAACGUAUAAUUAAUAUGUGGAACUAGUUUGCUUUUAUAAUUCAUUGUAUCAAGAAGGAGUCAUGUUUUAAAUCCAAGGCAUUGACAACAGAGGAUUGAGCAUCA
# B19: chr1:154944474:154944574:-|3pUTR|ENSG00000163346|msi1_unk|FALSE|overlapping (ssRNA)
# RNA: GGGAGUUCUACAGUCCGACGAUCUCGAGGCCCAGCACGAGGACUUACCCUGGGGUUUUGUUAGGUUUGGAAGCAGCUGUCCCUAGGGGGUGAAGUCCCCCCCCUUUUUUUUUUUACCCCUGCUUCUCCCACGGCUUCACCUCCCAACAGAGGAUUGAGCAUCA
# B20: ENSG00000087586:stop:overlap|stop_codon|ENSG00000087586|stop_codon|NA|stop_codon (ssRNA)
# RNA: GGGAGUUCUACAGUCCGACGAUCCAGCAAAUUCAUCAAAACCAUCAAAUUGCCAAAACAAAGAAUCAGCUAGCAAACAGUCUUAGGAAUCGUGCAGGGGGAGAAAUCCUUGAGCCAGGGCUGCCAUAUAACCUGACAGGAACACAACAGAGGAUUGAGCAUCA
# B21: chr4:150908776:150908877:-|CDS|ENSG00000198589|msi1|total|mutant (ssRNA)
# RNA: GGGAGUUCUACAGUCCGACGAUCGUUGAUUUGUACUCCGAUUCUCUUUGUGGCAUACUAUUUAACUGUUUUUAAUUAAUUCUCCGGGUACAUUUAAAUUCAAAGCAGAAAGCGACCUUUUCCUUGCUGAGCAUCACAAACUUUCAACAGAGGAUUGAGCAUCA
# B22: chr19:15272971:15273072:-|CDS|ENSG00000141867|msi1|FALSE|unique (ssRNA)
# RNA: GGGAGUUCUACAGUCCGACGAUCGUCUGCGGAGAGCGGCCCUGGGACGAGAUUGAGAAAUCUGCCAGUAAUGGGGGAUGGACUAGAAACUUCCCAAAUGUCUACAACACAGGCCCAGGCCCAACCCCAGCCAGCCAACGCAGCCAACAGAGGAUUGAGCAUCA
# Target: MSI1 full-length (mouse, UniProt Q61474 1-362)
# Chain of UniProt Q61474 (Q61474 whole entry): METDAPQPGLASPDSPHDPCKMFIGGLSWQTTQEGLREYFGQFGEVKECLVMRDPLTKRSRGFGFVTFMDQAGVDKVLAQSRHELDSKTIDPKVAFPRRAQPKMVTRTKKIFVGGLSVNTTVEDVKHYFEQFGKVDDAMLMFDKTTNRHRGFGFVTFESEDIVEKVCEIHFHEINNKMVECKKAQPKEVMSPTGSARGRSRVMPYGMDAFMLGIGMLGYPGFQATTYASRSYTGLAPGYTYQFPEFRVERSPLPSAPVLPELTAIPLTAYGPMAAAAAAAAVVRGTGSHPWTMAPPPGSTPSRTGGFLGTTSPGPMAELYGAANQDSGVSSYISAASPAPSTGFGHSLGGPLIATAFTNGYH
# Test: nsRBNS (natural sequence RNA bind-n-seq); RBNS binding buffer (assumed for nsRBNS): 25 mM Tris pH 7.5, 150 mM KCl, 3 mM MgCl2, 0.01% Triton X-100, 500 ug/ml BSA, 20 U/ml SUPERase-In, 4 C; UNK is unkempt and MSI1 is Musashi-1; names of the RNAs are library labels; protein concentration not given here; high values mean tight binding
row,Binder,binding signal
1,B1,9.62 enrichment R
2,B2,0.359 enrichment R
3,B3,5.23 enrichment R
4,B4,14.3 enrichment R
5,B5,1.83 enrichment R
6,B6,0.336 enrichment R
7,B7,0.541 enrichment R
8,B8,0.617 enrichment R
9,B9,0.643 enrichment R
10,B10,7.32 enrichment R
11,B11,1.9 enrichment R
12,B12,0.339 enrichment R
13,B13,16.4 enrichment R
14,B14,41.4 enrichment R
15,B15,0.578 enrichment R
16,B16,0.271 enrichment R
17,B17,0.746 enrichment R
18,B18,1.24 enrichment R
19,B19,0.866 enrichment R
20,B20,0.352 enrichment R
21,B21,1.19 enrichment R
22,B22,0.477 enrichment R
